# Over roughly 33,000 sequences, “E-score (-0.5 to 0.5)” has its median near -0.035; the highest 2% begin near 0.34. The list shows a part of the results.
# Biological target: T1, Mot3 (UniProt P54785)
# T1 sequence: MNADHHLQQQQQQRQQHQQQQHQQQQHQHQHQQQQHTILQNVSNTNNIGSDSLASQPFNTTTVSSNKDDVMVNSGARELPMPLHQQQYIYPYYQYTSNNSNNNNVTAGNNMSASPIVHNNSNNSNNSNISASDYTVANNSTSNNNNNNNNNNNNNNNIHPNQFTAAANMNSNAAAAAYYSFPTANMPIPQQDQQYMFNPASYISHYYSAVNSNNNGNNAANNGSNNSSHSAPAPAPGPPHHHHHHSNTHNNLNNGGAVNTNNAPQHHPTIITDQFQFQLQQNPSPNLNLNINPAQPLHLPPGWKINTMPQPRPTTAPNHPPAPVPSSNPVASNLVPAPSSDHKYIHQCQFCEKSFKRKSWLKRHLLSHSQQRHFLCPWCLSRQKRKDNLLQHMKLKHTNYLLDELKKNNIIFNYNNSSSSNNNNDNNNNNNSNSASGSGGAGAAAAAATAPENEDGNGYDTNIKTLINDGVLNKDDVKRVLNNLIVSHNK
# Assay: PBM E-score (8-mer binding enrichment) (E-score (-0.5 to 0.5)); higher = stronger / more preferred TF binding; most listed sequences are background and not binding sites
# Conditions: protein concentration: 200 nM; construct: GST-full length
# Method in brief: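 Full-length yeast transcription factors or their DNA-binding domains, GST-tagged and expressed with PURExpress, were applied at about 100-200 nM to universal all-10-mer Agilent arrays. These arrays had been made double-stranded by primer extension on fresh or once-stripped slides. Detection used fluorescent anti-GST, normalisation used masliner, and E-scores for ungapped eight-base words pooled with reverse complements came from the Universal PBM Analysis Suite.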
row,Sequence,PBM E-score
1,ACCTGACC,-0.112
2,AAAAACAC,0.231
3,CAGTGCAC,-0.168
4,GACGCCTA,0.0222
5,CCAGTGAA,-0.0706
6,CCGCGGCG,-0.253
7,ACTTCATC,-0.234
8,GAAGGTAC,0.438
9,AGGTCGTG,0.0505
10,CGATTGTC,0.0508
11,CAAAAGCC,-0.0126
12,AATACAGC,0.0486
13,CTGATCGA,-0.258
14,TCCCCAAA,0.043
15,CACGCTGA,0.0122
16,CAGCGCAG,-0.0869
17,CAAGACCC,0.0564
18,AAGACTCG,-0.193
19,CTGCATAA,0.0625
20,AAAGCCTT,-0.122
21,CGTGATAA,0.0869
22,GAGGCCAC,-0.0216
23,AGTTCACC,-0.0303
24,GTTTGGTA,0.00728
25,CCTCACAG,-0.131

row,Sequence,PBM E-score
1,ATTCTTCG,0.0141
2,CAATGATA,-0.0592
3,AGGCCACA,0.142
4,ATCCCTCG,-0.225
5,AGGTAATA,0.318
6,GTGGCCCA,-0.262
7,CGTTTTCA,0.216
8,GTGTTCGA,0.0206
9,AAACGTCC,-0.019
10,CCGCCCCG,-0.0988
11,ATAAAATA,0.141
12,CTGGTGGC,-0.263
13,CGCTAGTA,0.00136
14,GATGTCGC,-0.0384
15,CTCATACC,-0.11
16,GATTGGGA,-0.156
17,GCTCAAAC,-0.0243
18,GCGAGCAC,-0.228
19,AGTCGCAT,-0.0595
20,ATTATGAA,-0.0267
21,AATCTCAG,-0.103
22,GCTTCACA,0.0685
23,ACTTCTTG,-0.113
24,GAACGGTA,0.0291
25,AGGTGGAC,-0.183

row,Sequence,PBM E-score
1,GTTCCGCA,-0.0704
2,CGTGAATC,0.146
3,GGTCCAGA,-0.0101
4,ATCTTGAC,-0.15
5,AGGGGTTC,-0.0123
6,AATTGGCA,-0.121
7,CCAGTACA,0.208
8,CGCTCACG,-0.202
9,AAGTAGAT,0.0926
10,ACGATGCG,-0.014
11,GCGGCTAC,-0.116
12,CGTCTACC,-0.0996
13,ACTGCCTG,0.0753
14,ACGTGAAT,0.165
15,AACGTACG,0.0824
16,CCAGTGCC,0.0815
17,AGCCGTAT,0.0468
18,GACCGGCC,-0.394
19,ATTTTGCA,0.0729
20,GAGGCAGA,-0.164
21,CAATTAAC,0.155
22,CCCGCCGG,-0.202
23,ACGTAGTC,0.0571
24,CCGCGCAC,-0.0861
25,AATCAAAA,0.026

row,Sequence,PBM E-score
1,AAATTAGT,0.125
2,AAAAGCCG,-0.232
3,ACGCAGCC,0.0872
4,AGCGGAAG,-0.241
5,AGAGATAT,-0.0187
6,AATTTTCC,0.146
7,GAGTGCAC,-0.113
8,AGTGAAGA,-0.0753
9,GACAACAA,0.154
10,CAGATTAG,-0.134
11,AAAGAACA,0.223
12,CTGTTGTA,0.162
13,TAACTTCA,0.194
14,GGGAGCCC,-0.238
15,AACATTTA,0.244
16,AGCCATGA,-0.177
17,GCCGGCGA,-0.234
18,CCTATAAA,0.127
19,CGGGAAAA,-0.0172
20,GGATACTA,-0.132
21,GAACGTTA,-0.029
22,ACACAGGC,0.354
23,GGAACCAA,0.038
24,GATCCCCC,-0.356
25,AAGAGTGG,-0.279

row,Sequence,PBM E-score
1,CCGTCCAG,-0.298
2,GTGCCATA,-0.141
3,GATGATGC,-0.251
4,GCTAAGCC,-0.224
5,CCGCGTAG,0.216
6,TAACGCAA,0.2
7,GCGCAACC,-0.274
8,CGCAACAC,0.151
9,CATTACGG,0.0231
10,GGTCTAGA,-0.215
11,GCGCATAC,0.033
12,CACGGTAA,0.103
13,ATCTAAAG,0.136
14,CTTAGGCC,-0.0744
15,AGTTGCCG,-0.105
16,CCGTTCAG,-0.311
17,CCTTTTCG,0.00969
18,ACGTCTAA,0.118
19,CTCCTCAA,-0.184
20,CGCTAGCC,-0.192
21,GTTCCCAA,-0.138
22,CCGATATA,0.0748
23,CTCCCCAA,-0.0983
24,AATTATTA,0.14
25,GTCACCGA,-0.06

row,Sequence,PBM E-score
1,GGATAGTA,0.0932
2,CTGATTAC,0.267
3,ACATGCAC,0.283
4,CCGTAGGC,0.285
5,GACAGCCC,-0.373
6,TATTAGCA,0.083
7,AAGTCGGG,-0.28
8,CCCAGTGA,-0.203
9,GACTTTGA,-0.00744
10,ATAATATC,0.00249
11,CGTTGGTA,0.165
12,ACCGCCCG,-0.352
13,CCCAGTTA,-0.142
14,CACATGTA,0.344
15,AGTCTCAT,-0.0812
16,CTGTATTA,0.146
17,CTATTGGA,-0.153
18,CTAGGGAA,-0.115
19,CTCGACAC,0.0998
20,AGTGCAAC,0.0919
21,GAGCATCC,-0.36
22,CGCAATAC,0.262
23,GTGCTCGA,-0.126
24,GTGTGGTA,0.0958
25,AAACGCAA,0.13

row,Sequence,PBM E-score
1,CCCCATCG,-0.14
2,CGGACATA,-0.0853
3,ATACGGCC,-0.155
4,CGACTCCA,-0.111
5,GGTCGATA,-0.259
6,GAGATGAC,-0.151
7,AACCAGAC,0.115
8,CCATCTGC,-0.272
9,GCCAAATA,-0.0589
10,GCCGATCC,-0.236
11,GTGGTGCA,-0.156
12,AGCCACGA,-0.0837
13,CACCTGGG,-0.155
14,AGTGATGG,-0.0829
15,ACTTAGTG,0.0824
16,AGGCCATA,-0.164
17,AGGATAAC,-0.0145
18,ATCGATAC,0.0638
19,CCATCGAC,-0.167
20,ATGGTAAC,0.141
21,TAGAAAAA,0.122
22,AACTATGA,0.0224

# From the supplement of paper PMC3334620
